Measured values: paper PMC10668032
The list shows a part of the results. At the low end of the ranking, values are background and their order means little.

Biological target: SIX1 homeodomain (reference allele) (UniProt Q15475)
Assay: universal protein binding microarray
Details: Universal all-10-mer PBM (8x60K, AMADID 030236), 300 nM GST-tagged protein, Alexa Fluor 488 anti-GST; buffer, salt, pH and temperature not stated; high values mean tight binding; most listed sequences are background and not binding sites; double strand, one strand shown

Row | Sequence | binding signal [E-score]
1 | AACGACCA | -0.101
2 | ACGCTGCC | -0.0891
3 | GCGAATGA | -0.0128
4 | CACGCTTC | -0.244
5 | CAGTTGGG | -0.0965
6 | ACACCAGT | 0.329
7 | AGCGACGA | -0.0866
8 | CCGAACGC | -0.194
9 | CGTTCGGC | -0.085
10 | CAGTGCCC | -0.0785
11 | GTTTGTGA | 0.0527
12 | AAGTGAGC | -0.00863
13 | AGCAGGTA | 0.064
14 | GAGTGTGC | -0.154
15 | AGTTCAAC | -0.224
16 | GAAGGTGA | 0.0812
17 | ACGCCGTG | -0.0407
18 | GTTTACCA | -0.113
19 | AGGATAAG | 0.181
20 | AAATTTCA | -0.347
21 | GGCGTCAA | -0.206
22 | GATTTCGC | -0.103
23 | GCTGGGCC | -0.314
24 | GCGGGGCC | -0.138
25 | GGGCAACC | -0.0964

Row | Sequence | binding signal [E-score]
26 | CTGACAAG | -0.215
27 | AAAAGACT | -0.123
28 | TACCGCAA | 0.0325
29 | ACACACAC | -0.0151
30 | AGCATTGA | -0.0617
31 | ACGAGAAA | -0.189
32 | CAGCCACG | -0.217
33 | GCTGCAAA | -0.16
34 | AAATGATG | -0.0703
35 | CAGGCCCC | -0.276
36 | ACAGCGCC | -0.133
37 | AGTTGTGA | -0.0336
38 | ATAGGAAG | 0.0198
39 | CTGGGGCA | -0.156
40 | AACCAGGA | -0.0447
41 | CGTGGTAG | -0.0943
42 | GTGTATGA | 0.17
43 | TTGGGAAA | -0.081
44 | CAATTACC | -0.27
45 | TATAAGGA | 0.136
46 | CCAGTTAC | -0.0806
47 | AAGACTCA | -0.0424
48 | AGGTGATA | 0.418
49 | AGGACCGC | -0.193
50 | CGTTCTAG | -0.0187

Row | Sequence | binding signal [E-score]
51 | ATGTCAAA | -0.206
52 | GCGTGGCA | -0.0799
53 | ATGCCCGG | 0.0644
54 | CGGCTCTC | -0.0899
55 | ATCCCAAT | 0.236
56 | ACACTGCT | -0.262
57 | ACTAGGCC | -0.238
58 | ATCGAGGC | 0.0267
59 | CGTACATC | -0.0294
60 | GCCGACAA | -0.036
61 | ACCAGAAC | -0.0287
62 | CGATCATA | 0.276
63 | ACTCTTCG | -0.04
64 | GAGGAGGC | -0.0375
65 | ATCACGAG | 0.133
66 | ACGATTCG | -0.177
67 | ATCAAGAA | -0.00943
68 | ACGGCAGA | 0.0497
69 | CTCGGTAC | -0.0172
70 | AGGCTTCA | -0.0937
71 | AGGGCCGC | -0.157
72 | CTGAGAAA | -0.124
73 | GGAGCCTA | 0.0353
74 | AAAATCTT | -0.359
75 | GTTTTTTA | -0.0417

Row | Sequence | binding signal [E-score]
76 | CGGTAGTC | -0.0497
77 | CTGGTTCA | -0.0617
78 | AAAGCAAC | -0.225
79 | CCACAATA | 0.138
80 | GTGACAAA | 0.136
81 | CCAAAAGC | -0.223
82 | TACACGAA | 0.0502
83 | AATCCTCT | 0.0262
84 | ACTGCAGA | -0.269
85 | ACCAAATC | 0.0654
86 | AAATACAG | -0.0588
87 | ATAATTAC | -0.0249
88 | CAGCATCA | 0.131
89 | CAACTCCC | -0.109
90 | CGCCTACG | -0.148
91 | CTGTGTTC | -0.199
92 | ATAAGGAA | -0.169
93 | CTCCACTA | 0.0286
94 | ATGTACAC | 0.125
95 | AGTGGCCA | -0.0931
96 | CCAGTAAC | -0.0929
97 | CGGACTTC | -0.243
98 | ATCGCCTC | 0.216
99 | GCATGAAC | -0.159
100 | TATGGGGA | 0.232

Row | Sequence | binding signal [E-score]
101 | CCGCGGGA | 0.103
102 | AATTCTCT | -0.329
103 | ACGGTCCG | -0.135
104 | ATGCTTCC | -0.145
105 | AAGACCGC | -0.0943
106 | CGTGTCTA | 0.11
107 | CTAAGGCC | -0.173
108 | CGTCAGCA | -0.179
109 | AAAACTGA | -0.134
110 | CATCATTC | -0.051
111 | GACTGTAA | -0.142
112 | AGCTGTAC | -0.0975
113 | CCGACCAG | -0.0115
114 | CGATGGTC | -0.111
115 | GACAAACC | -0.181
116 | AGCCAATG | -0.0313
117 | TGATACCA | 0.481
118 | CAGAGGGC | -0.263
119 | GCTTTGAA | -0.148
120 | AACGACGT | -0.235
121 | GTGCGCAC | -0.131
122 | CTGCGAGA | -0.0804
123 | GGGAGTAC | 0.0436
124 | CATTGCCC | -0.155
125 | CTCTCCCA | -0.22

Row | Sequence | binding signal [E-score]
126 | ACCGATAT | 0.396
127 | CCAGAAGA | -0.112
128 | AGTGGCAG | -0.248
129 | GAGGGTAA | 0.00963
130 | CAATATTC | 0.104
131 | CCACTAAA | -0.146
132 | CATGTTGC | -0.248
133 | CAGGGGGG | -0.162
134 | GTTTCCGA | -0.0597
135 | CTTCACGC | -0.0507
136 | CCTTTCCA | -0.012
137 | CAGACAGC | -0.218
138 | AGAGTAAA | -0.0531
139 | ATAGATCC | 0.302
140 | CGTTATAG | 0.0166
141 | GACCACAC | -0.081
142 | GCTAAAAA | -0.2
143 | GAGCAGCC | -0.123
144 | AGCGATCC | 0.356
145 | ATATAACC | 0.177
146 | CTGTAAAC | -0.173
147 | CCCGGATC | 0.45
148 | CAAATGTA | -0.0333
149 | CAAAGCTC | -0.158
150 | CAACCAGG | -0.108

Row | Sequence | binding signal [E-score]
151 | GGTACCAA | -0.0758
152 | GTGGTTGA | -0.296
153 | ATGGTCCG | 0.00411
154 | ATGTTCGG | -0.101
155 | CAACTGTA | -0.0799
156 | AGCTTCGG | -0.0517
157 | ACCGACCA | -0.0186
158 | TCACGGGA | -0.0241
159 | AGCGTCAT | -0.0435
160 | AAGTATCC | 0.388
161 | ATTTTAGC | -0.116
162 | CTCCAAGC | -0.0977
163 | ATCATGAT | 0.398
164 | GCCGGTAC | -0.0205
165 | GATCAAGA | 0.191
166 | CGTTAAGC | -0.11
167 | CTCTTCAG | -0.164
168 | ATTCTGGG | -0.0634
169 | AATATACA | 0.222
170 | GAGAACCA | 0.0679
171 | AGTCCACG | -0.171
172 | AGATCTAA | 0.116
173 | ACCTTGCT | -0.0389
174 | CTTCGTTA | -0.151
175 | AGTCCGGG | -0.143

Row | Sequence | binding signal [E-score]
176 | ACTCCGGG | 0.0872
177 | AGAAGTAT | 0.297
178 | GGCCCCAA | -0.245
179 | ACCCACCT | -0.115
180 | AAGCCTAT | 0.144
181 | ACACATGG | -0.194
182 | CATCGGCC | -0.144
183 | AACCAAAA | 0.00971
184 | ATACCGCG | 0.377
185 | ACTTTGTC | -0.25
186 | ACAAAGCG | -0.22
187 | TCGGGCAA | -0.116
188 | CCCGCCCA | 0.0698
189 | CTATACGA | 0.18
190 | CACCAGTC | -0.0772
191 | CGTGACTC | -0.231
192 | CAAGCTAC | -0.0824
193 | GTGAGAGA | -0.0326
194 | AACATTTG | -0.251
195 | GACCCAAC | -0.144
196 | GCTGGAGA | -0.0773
197 | ATGACGTC | 0.0387
198 | AAACCAGA | 0.104
199 | AGTCAAAA | -0.236
200 | GATTCCGC | -0.00161

Row | Sequence | binding signal [E-score]
201 | GAGTCATA | 0.0868
202 | CAATAGAC | -0.131
203 | GCTCTACC | -0.182
204 | ACATGTGG | -0.133
205 | TAAGCTAA | -0.0876
206 | ATGCTACA | -0.0248
207 | GAAATAAA | -0.0748
208 | ATAGCTGC | 0.118
209 | CGTGGCAG | -0.222
210 | GGTCGTAC | -0.0215
211 | CAACACCC | 0.24
212 | ATCTGGTC | 0.121
213 | GAAGCTCC | -0.205
214 | ATTAAAAA | -0.0117
215 | ATTGTGGA | 0.196
216 | TAGTGAGA | 0.203
217 | ATCTTAAA | -0.0453
218 | AACGTCTT | -0.215
219 | ACGGTCTG | -0.0678
